# “And” between values parts separate entries of the source, which are not always exact repeats. Equal values may be shown once. The whole screen tested about 310,000 compounds, of which about 18,000 (5.8%) were called active. This list was built around the results that the source calls inconclusive (neither active nor inactive); the mix of calls is not that of the screen. Calls follow the shape of the dose curve; as a rule, active = well fitted inhibition curve with a large enough effect; inconclusive = small, poorly fitted or top-dose-only effect, or another doubt; inactive = no such curve, though single readings can be large or run the other way. No potency is given beside an inconclusive call; the fits are too rough.
# Assay: Primary qHTS for delayed death inhibitors of the malarial parasite plastid, 48 hour incubation
# Details: P. falciparum luciferase growth in erythrocytes; series mostly up to 28.7 µM
# Procedure, shortened: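 Read-out is firefly luciferase luminescence from an integrated reporter in P. falciparum, so falling signal marks reduced parasite growth. Infected erythrocytes were at 2% hematocrit and 0.1% parasitemia (final) in Albumax-supplemented RPMI 1640.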
# Potency is read from the fitted curve at half-maximal effect; tags tell the direction and shape of the fitted curve.
row,Structure (SMILES),Potency
1,CCCCCCCCNC(C)C(O)c1ccc(SC(C)C)cc1 (stereo not drawn),active: 169 nM and active: 1.85 µM
2,COc1ccc(-c2csc3ncnc(N4CCN(c5ccccc5OC)CC4)c23)cc1,active: 5.86 µM
3,NNC(=O)C1c2ccccc2Oc2ccccc21,"inconclusive [inhibitor, single point]"
4,Cc1nc(CSc2nnc(Nc3cccc(C)c3C)s2)cs1,"inconclusive [inhibitor, partial curve, poor fit]"
5,Cc1ccccc1Nc1c(-c2cccnc2)nc2ccccn12,"inconclusive [inhibitor, partial curve]"
6,Cc1nc2ccc(NC(=O)c3ccc(=O)[nH]c3)cc2s1,"inconclusive [inhibitor, partial curve]"
7,CCC(=O)Nc1cccc(C2=NOC3(C2)C[C@@H](C(N)=O)N(C(=O)c2ccccc2C(=O)c2ccccc2)C3)c1 (stereo partly drawn),"inconclusive [inhibitor, single point]"
8,C/C(=N\NC(=O)C1CC1)c1ccc(C)c(C)c1,"inconclusive [inhibitor, partial curve]"
9,CCOC(=O)C1=C(C)NC2=C(C(=O)CC(C)(C)C2)C1c1cccc(C)n1 (stereo not drawn),"inconclusive [inhibitor, single point]"
10,CCOC(=O)c1[nH]c2ccccc2c1NC(=O)c1ccc(S(=O)(=O)N2CCOCC2)cc1,"inconclusive [inhibitor, partial curve]"
11,CCn1c(SCC(=O)O)nnc1-c1cccnc1,inactive
12,N#Cc1cccc(NC(=O)C2SC(=Nc3ccccc3)C(C(=O)N3CCOCC3)=C2N)c1 (stereo not drawn),"inconclusive [inhibitor, partial curve, poor fit]"
13,CCOC(=O)N1CCN(C(=O)CSc2nc3c(c(=O)n2-c2ccccc2OC)SCC3)CC1,"inconclusive [inhibitor, partial curve]"
14,Cn1c(=O)n(Cc2ccc(F)cc2)c(=O)c2c1nc1n2CCCN1C1CCCCC1,"inconclusive [inhibitor, full curve, poor fit]"
15,C=CCN1C(c2ccc(OCC)cc2)=CS/C1=C(\C#N)c1nnc2n1CCCCC2,"inconclusive [inhibitor, single point]"
16,Cc1ccc(C)c(-c2csc(NC(=O)c3c(C)noc3C)n2)c1,"inconclusive [inhibitor, single point]"
17,COc1ccccc1OCc1nnc(SCC(=O)c2cc(Cl)ccc2OC)o1,"inconclusive [inhibitor, partial curve]"
18,CCCCNC(=O)CSc1nc2cc3c(cc2c(=O)n1CCCN(CC)CC)OCO3,"inconclusive [inhibitor, single point]"
19,COC(=O)CN1C(=S)N(c2ccc(OC)cc2)C(=O)/C1=C/c1ccc(N2CCOCC2)cc1,"inconclusive [inhibitor, partial curve]"
20,COc1ccc(C(C)=O)cc1CN1C(=O)C(C)N(c2ccc(C)cc2)C1=O (stereo not drawn),"inconclusive [inhibitor, partial curve]"
21,Cc1ncc(CO)c(/C=N/NC(=S)Nc2cccc(Cl)c2)c1O,"inconclusive [inhibitor, single point]"
22,CCOc1ccc(Nc2nc(N)nc(CN3CCN(c4ccccc4F)CC3)n2)cc1,"inconclusive [inhibitor, single point]"
23,CCN1CCN(c2cc(C)c3cc(NC(=O)c4cncc(Br)c4)ccc3n2)CC1,active: 0.104 µM

row,Structure (SMILES),Potency
1,COc1ccc2c(CC(=O)N3CCc4cc(OC)c(OC)cc4C3)coc2c1,"inconclusive [inhibitor, single point]"
2,COc1cc(NC(=O)Cc2ccccc2)ccc1NC(=O)c1ccccc1,inactive
3,Cc1ccc(NC(=O)CN2CCCC2c2cccs2)cc1S(=O)(=O)N1CCCCC1 (stereo not drawn),active: 9.28 µM
4,CN(CC(=O)Nc1ccccc1Cl)C(=O)COc1cccc2c1OC(C)(C)C2,"inconclusive [inhibitor, partial curve, poor fit]"
5,CCC1CCCCN1CCCNC(=O)c1cn(CC(C)C)c(=O)c2cc(OC)c(OC)cc12 (stereo not drawn),"inconclusive [inhibitor, full curve, poor fit]"
6,Cc1ccccc1NC(=O)Cc1nc(COC(=O)CC(C)c2ccccc2)cs1 (stereo not drawn),"inconclusive [inhibitor, partial curve]"
7,CCOC(=O)c1ccc(NC(=S)N(CCCN(CC)CC)Cc2ccco2)cc1,"inconclusive [inhibitor, partial curve]"
8,CCOC(=O)CCn1cc(F)c(=O)n(Cc2ccccc2)c1=O,inactive
9,COc1cccc(NC(=O)C2CCCN(c3ncnc4c3nc3n4CCCCC3)C2)c1 (stereo not drawn),"inconclusive [inhibitor, partial curve]"
10,O=C1CC(N2CCN(c3ccc(F)cc3)CC2)C(=O)N1Cc1cccs1 (stereo not drawn),"inconclusive [inhibitor, partial curve, poor fit]"
11,FC(F)(F)c1cccc(CNC2CCN(Cc3ccccc3)CC2)c1,active: 2.62 µM
12,O=C(/C=C/c1ccccc1Cl)N(c1ccccn1)C1CCCCC1,"inconclusive [inhibitor, partial curve]"
13,COc1cc(/C=N/Nc2ccccc2)ccc1O,"inconclusive [inhibitor, partial curve]"
14,COc1ccc(C(C)=O)cc1CN1C(=O)NC(CC(C)C)C1=O (stereo not drawn),inactive
15,Cc1nn(CC(=O)Nc2ccc3c(c2)nc(CCN2CCCCC2)n3C)c(=O)c2ccccc12,inactive
16,Oc1ccc(CNCc2ccc3c(c2)OCO3)c2cccnc12,active: 8.28 µM
17,Cc1onc(-c2c(F)cccc2Cl)c1C(=O)N(C)CC(=O)Nc1cccc(F)c1,inactive
18,CC(=O)NC12CC3CC(C1)CC(C(=O)Oc1ccc(N(C)S(=O)(=O)c4cc(C)ccc4C)cc1)(C3)C2,"inconclusive [inhibitor, partial curve, poor fit]"
19,CC(Sc1nc2ncc(Cl)cc2[nH]1)C(=O)Nc1ccc(C(N)=O)cc1 (stereo not drawn),"inconclusive [inhibitor, single point]"
20,O=S(=O)(c1ccccc1)N1N=C(c2ccc(Br)cc2)CC1c1ccco1 (stereo not drawn),"inconclusive [inhibitor, partial curve, poor fit]"
21,O=C(Nc1cccc(Cl)c1N1CCCC1)c1ccc([N+](=O)[O-])o1,"inconclusive [inhibitor, partial curve]"
22,CC(=O)CSc1nsc(SCC(C)=O)c1C#N,"inconclusive [inhibitor, single point]"
23,O=C(Nc1cccc([N+](=O)[O-])c1)C1C2CC/C=C\CCC21 (stereo not drawn),"inconclusive [inhibitor, partial curve, poor fit]"

row,Structure (SMILES),Potency
1,CCc1ccc(CNC(=O)CCc2nnc(Cc3cccc(C(F)(F)F)c3)o2)nc1,inactive
2,Cc1c(Cl)c([N+](=O)[O-])nn1CCCC(=O)NC1CCCCC1,inactive
3,O=C(Nc1cc(S(=O)(=O)N2CCOCC2)ccc1N1CCOCC1)c1cn2ccccc2n1,"inconclusive [inhibitor, partial curve]"
4,CCNc1ccc(S(=O)(=O)N(C)C)cc1NCC(=O)Nc1ccccc1Br,"inconclusive [inhibitor, single point]"
5,COC(=O)C1=C(c2ccc3ccccc3c2)C[C@@H]2CC[C@H]1N2C(=O)NC(C)C,"inconclusive [inhibitor, single point]"
6,CCCCC(=O)Oc1c(S(=O)(=O)c2ccccc2)c(C)nn1C(C)(C)C,inactive
7,Brc1cc2c(cc1/C=N/Nc1nc(N3CCCC3)nc(N3CCOCC3)n1)OCO2,"inconclusive [inhibitor, single point]"
8,Cc1ccc2[nH]c(=O)c(CN(Cc3ccco3)C(=O)N3CCOCC3)cc2c1,inactive
9,Cc1oc2ccc(O)cc2c1C(=O)c1ccccc1,inactive
10,COc1ccccc1NC(=O)CS(=O)(=O)c1cn(CC(=O)N2CCCC2)c2ccccc12,inactive
11,Cc1cc(C)n2nc(C(F)(F)F)c(-c3ccccc3)c2n1,inactive
12,COCCNc1ccc(S(=O)(=O)N2CCCC2)cn1,inactive
13,c1coc(CN(Cc2ccco2)c2ncnc3c2oc2ccccc23)c1,"inconclusive [inhibitor, partial curve, poor fit]"
14,Cc1ccc(S(=O)(=O)N2CCCCC2)cc1NC(=O)[C@@H]1CCCN1C(=O)c1cccs1,"inconclusive [inhibitor, single point]"
15,Cc1cc(/C=C2/C(=O)NC(=O)N(c3ccc(Br)cc3)C2=O)c(C)n1C,inactive
16,CCc1cc[n+](-c2nc3ccccc3nc2C(=C=[N-])C#N)cc1,"inconclusive [inhibitor, single point]"
17,N#CC1(c2ccccc2)CCC(=NNS(=O)(=O)c2ccccc2)CC1 (stereo not drawn),"inconclusive [inhibitor, single point]"
18,c1ccc2sc(NN=C3CCCCCC3)nc2c1,inactive
19,Cc1ccc(CS/C(Nc2ccccc2C)=C(\C#N)C(N)=O)c(C)c1,"inconclusive [inhibitor, partial curve, poor fit]"
20,O=C(Nc1ncccn1)C12CC3CC(CC(C3)C1)C2,inactive
21,CSc1cccc(NC(=O)Cc2ccccc2[N+](=O)[O-])c1,inactive
22,COC(=O)C1=C(N)Oc2cc(C)n(CCCn3ccnc3)c(=O)c2C1c1cccc(Cl)c1 (stereo not drawn),active: 5.86 µM
